The source of these data is US8613927B2, “High affinity human antibodies to human nerve growth factor” (Regeneron Pharmaceuticals, Inc., priority 2007, dated 2013).

The assay addresses T1, human NT-3 (Homo sapiens, UniProt P20783).
T1 sequence (P20783 139-257): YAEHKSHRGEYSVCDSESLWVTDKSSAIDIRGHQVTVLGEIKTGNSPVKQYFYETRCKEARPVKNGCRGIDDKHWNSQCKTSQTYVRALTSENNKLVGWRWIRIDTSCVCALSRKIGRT
The assay is described as follows: BIACORE cross-reactivity test, NT-3. The class given is binding. The settings on record: NT-3 1.25 nM to 40 nM; purified antibodies. As for the experimental part:
The anti-NGF antibodies were examined for binding cross-reactivity with human NT-3. Briefly, goat anti-human IgG polyclonal antibody was chemically linked to a CM5 chip. Anti-NGF monoclonal antibodies were injected forming a surface of about 50 to 900 RU of immobilized antibody through the interaction with the chip coupled polyclonal antibodies. […] Both association and dissociation phases were monitored and data were analyzed. Results are shown in Table 3 (NB=no binding activity observed).

B1: REGN477: HCVR/LCVR SEQ ID NO:232/234 and mutant hIgG4 SEQ ID NO:543 (antibody)
heavy: EVQLVESGGGLVQPGRSLRLSCAAPGFNFDDYAMHWVRQTPGKGLEWVSGISWNSGTIGYADSVKGRFTISRDNAKNSLYLQMNSLRPEDTALYYCAKEGVWFGKLFSSYGMDVWGQGTTVTVSSASTKGPSVFPLAPCSRSTSESTAALGCLVKDYFPEPVTVSWNSGALTSGVHTFPAVLQSSGLYSLSSVVTVPSSSLGTKTYTCNVDHKPSNTKVDKRV[human IgG4 Fc with S228P (EU numbers) omitted here]
VL: EIVMTQSPATLSVSPGERATLSCRASQSVTYNLDWYQQKPGQAPRLLIFGASTRATGIPARFSGSGSGTEFTLTITSLQSEDFAVYYCQQYNNWPYTFGQGTKLEIKR
As for B1, the “affinity for NT-3” value is “none of the test antibodies exhibited measurable affinity”.

B2: REGN472: HCVR/LCVR SEQ ID NO:100/102 and hIgG1 SEQ ID NO:541 (antibody)
heavy: QVQLVQSGAEVKKPGASVKVSCKVSGFTLTELSMHWVRQAPGKGLEWMGGFDPEDGETIYAQKFQGRVTMTEDTSTDTAYMELSSLRSEDTAVYYCSTIFGVVTNFDNWGQGTLVTVSS[human IgG1 constant region omitted here]
VL: DIQMTQSPSSLSASVGDRVTITCRASQAIRNDLGWYQQKPGKAPKRLIYAAFNLQSGVPSRFSGSGSGTEFTLTISSLQPEDFATYYCQQYNRYPWTFGQGTKVEIKR
On to B2, for which the “affinity for NT-3” value is listed as “none of the test antibodies exhibited measurable affinity”.

B3: REGN474: HCVR/LCVR SEQ ID NO:100/102 and mutant hIgG4 SEQ ID NO:543 (antibody)
heavy: QVQLVQSGAEVKKPGASVKVSCKVSGFTLTELSMHWVRQAPGKGLEWMGGFDPEDGETIYAQKFQGRVTMTEDTSTDTAYMELSSLRSEDTAVYYCSTIFGVVTNFDNWGQGTLVTVSSASTKGPSVFPLAPCSRSTSESTAALGCLVKDYFPEPVTVSWNSGALTSGVHTFPAVLQSSGLYSLSSVVTVPSSSLGTKTYTCNVDHKPSNTKVDKRV[human IgG4 Fc with S228P (EU numbers) omitted here]
VL: B2 VL
On to B3, for which the “affinity for NT-3” value is “none of the test antibodies exhibited measurable affinity”.
